Consider 28 compounds from PubChem BioAssay AID1745853 (National Center for Advancing Translational Sciences (NCATS), 2022).

Assay in all cases: Primary Screen for Target Class Profiling of Small Molecule Inhibitors of Methyltransferases
The target in assay [1] is Glycine N-methyltransferase (Homo sapiens) (UniProt Q14749). Particulars: purified enzyme, MTase-Glo SAH luminescence; measured here: GNMT inhibition; at 40 µM; stronger effect = lower value. In a few lines:
(§1)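 Each enzyme was reacted with SAM and its substrate, with compounds tested once at 40 uM; SAH formed was read by MTase-Glo luminescence.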

The target in assay [2] is Guanidinoacetate N-methyltransferase (Homo sapiens) (UniProt Q14353). Particulars: purified enzyme, MTase-Glo SAH luminescence; measured here: GAMT inhibition; at 40 µM; stronger effect = lower value. A digest of the protocol:
as §1

For assay [3], the target named is Histamine N-methyltransferase (Homo sapiens) (UniProt P50135). Particulars: purified enzyme, MTase-Glo SAH luminescence; measured here: HNMT inhibition; at 40 µM; stronger effect = lower value. In a few lines: as §1
The target of assay [4] is Nicotinamide N-methyltransferase (Homo sapiens) (UniProt P40261). Conditions: purified enzyme, MTase-Glo SAH luminescence; measured here: NNMT inhibition; at 40 µM; stronger effect = lower value. In a few lines: as §1
In assay [5] the target is Phenylethanolamine N-methyltransferase (Homo sapiens) (UniProt P11086). Conditions: purified enzyme, MTase-Glo SAH luminescence; measured here: PNMT inhibition; at 40 µM; stronger effect = lower value. A digest of the protocol: as §1

Values joined by “and” are separate entries in the source; they are usually repeats but may differ in a detail not shown here. Equal entries are not always repeated. The list shows a part of the results. Further columns of the screen follow, without active or inactive calls.
% is scaled to controls: 0 for no effect and ±100 for the full control effect.

For the compound `CC(C)(Oc1nn(CCOc2ccccc2)c2ccccc12)C(=O)NCc1ccncc1`, the activity change, negative = inhibition in assay [1] was -9.51%; in assay [2], -10.1%; in assay [3], -8.66%; in assay [4], -9.43%; in assay [5], -4.25%.
For `CC1CC(C)CN(CCCN2C(=O)c3ccc(-c4ccco4)n3CC2(C)C(=O)NC2CCCCC2)C1` (stereo not given), the activity change, negative = inhibition in assay [1] is -4.72%; in assay [2], 4.55%; in assay [3] it was -6.05%; in assay [4] it was 2.29%; in assay [5], 0.397%.
With `FC(F)Oc1ccccc1CN(CC1CCN(C2CCCC2)CC1)CC1CCCO1` (stereo not given), the activity change, negative = inhibition in assay [1] was -1.66%; in assay [2], 1.58%; in assay [3], -17.5%; in assay [4], -6.81%; in assay [5], 6.78%.
The matching figures for `CCc1cc2c(cc3n2CC(C)(C(=O)NC2CCCCC2)N(C2CCCCC2)C3=O)s1` (stereo not given): 0.315%, 4.25%, 3.32%, 2.13% and 0.834%.
As to `COc1ccccc1-c1ccc2c(n1)CN(CC(=O)N1CCCC1)C(=O)CO2`, the activity change, negative = inhibition in assay [1] is -6.72%; in assay [2], -7.08%; in assay [3], -2.27%; in assay [4], -9.68%; in assay [5], -7.44%.
Regarding `CCN(Cc1nccn1C)C(=O)c1ccc(N2CCSCC2)nc1`, the activity change, negative = inhibition in assay [1] was -5.01%; in assay [2] it was -10.2%; in assay [3], -6.48%; in assay [4], -17.1%; in assay [5] it was -13.4%.
`CCc1cc2c(cc3n2CC(C)(C(=O)NC2CCC(C)CC2)N(CCCc2ccccc2)C3=O)s1` (stereo not given): the activity change, negative = inhibition is 4.59% in assay [1]; -5.64% in assay [2]; 6.32% in assay [3]; 4.45% in assay [4]; 2.34% in assay [5].
On to `COc1ccccc1-n1cc(C(=O)N2CCC3(CCNC(=O)CC3)CC2)cn1`, for which the activity change, negative = inhibition in assay [1] is -2.24%; in assay [2], -2.18%; in assay [3] it was 1.53%; in assay [4], -2.75%; in assay [5], -1.18%.
In the case of `COC(=O)c1ccc(COc2ccc3c(-c4ccccc4)cc(=O)oc3c2C)cc1`, the activity change, negative = inhibition was -6.76% in assay [1]; 0.977% in assay [2]; -0.878% in assay [3]; 3.62% in assay [4]; -6.32% in assay [5].
Regarding `CCCN1C(=O)c2cc(C(=O)NCCc3ccc(OC)c(OC)c3)nn2CC1(C)C(=O)NC1CCCC1` (stereo not given), the activity change, negative = inhibition in assay [1] is 4.18%; in assay [2], 0.641%; in assay [3] it was -2.35%; in assay [4], 5.39%; in assay [5] it was 2.2%.
The matching figures for `CC(C)OCCCNC(=O)C1c2c(n(C)c3ccccc23)SCC(=O)N1c1cccc(Cl)c1` (stereo not given): 4.21%, 0%, 0.553%, -2.15% and 4.48%.
For `C[C@@H]1[C@H](C)CC[C@]2(C(=O)O[C@@H]3O[C@@H](CO[C@@H]4O[C@@H](CO)[C@@H](O[C@@H]5O[C@@H](C)[C@@H](O)[C@@H](O)[C@H]5O)[C@@H](O)[C@H]4O)[C@@H](O)[C@@H](O)[C@H]3O)CC[C@]3(C)C(=CC[C@H]4[C@@]5(C)C[C@@H](O)[C@@H](O)[C@](C)(CO)[C@@H]5CC[C@@]43C)[C@H]12`, the activity change, negative = inhibition in assay [2] is 1.16%; in assay [4], -10.6%; in assay [5], 0.641%.
Regarding `CC(C)CNc1ncnc2c1CN(C1CNC1)C(=O)CN2C`, the activity change, negative = inhibition in assay [1] is -4.21%; in assay [2], -5.4%; in assay [3], -2.57%; in assay [4], -8.15%; in assay [5], -20.4%.
In the case of `CC[C@]1(O)CC2CN(CCc3c([nH]c4ccccc34)[C@@](C(=O)OC)(c3cc4c(cc3OC)N(C)[C@H]3[C@@](O)(C(=O)OC)[C@H](OC(C)=O)[C@]5(CC)C=CCN6CC[C@]43[C@@H]65)C2)C1` (stereo not given in full), the activity change, negative = inhibition in assay [1] was -7.17% and -35.6%; in assay [2], 15.9% and 13.6% and 20.2%; in assay [3], 8.33% and 6.34%; in assay [4] it was 2.25% and -0.927% and -1.96%; in assay [5] it was 8.41% and 6.71% and 10.2%.
With `CCCn1c(=O)c2cc(Cl)ccc2n2c(SCc3ccccc3)nnc12`, the activity change, negative = inhibition in assay [1] is -20.7%; in assay [2], 0%; in assay [3], 9.21%; in assay [4], -8.18%; in assay [5] it was 4%.
The matching figures for `CC1CCCC(NC(=O)C2(C)Cn3c(cc4occc43)C(=O)N2Cc2ccccc2F)C1C` (stereo not given): -4.43%, 2.24%, -0.719%, -4.77% and -3.27%.
The matching figures for `COc1ccccc1CNC(=O)C1(C)Cn2cnc(C(=O)NCc3ccccc3Cl)c2C(=O)N1C1CC1` (stereo not given): -9.57%, 0.513%, -2.83%, -5.94% and -6.92%.
Take `CC(C)Cn1c(=O)c2ccccc2n2c(SCc3ccccc3F)nnc12`: the activity change, negative = inhibition is -0.488% in assay [1]; 0.686% in assay [2]; 7.17% in assay [3]; -0.115% in assay [4]; 3.37% in assay [5].
The matching figures for `O=C1NCCCCCN(CC2CCCCC2)[C@H]2CCC[C@@H]12`: -8.33%, -3.86%, -1.95%, -4.3% and 7.2%.
The matching figures for `C=Cc1ccc(Cn2nc3n(C)c(=O)c4ccc(C(=O)NC5CCCCC5)cc4n3c2=O)cc1`: 0.942%, 4.89%, 3.84%, 2.04% and 2.79%.
With `C[C@@H]1O[C@@H](O[C@H]2[C@H](O)[C@@H](C(=O)O)O[C@@H](O[C@H]3CC[C@@]4(C)C(CC[C@]5(C)C4CC=C4C6CC(C)(C)CC[C@]6(C(=O)O)CC[C@]45C)C3(C)C)[C@@H]2O[C@@H]2O[C@H](CO)[C@@H](O)[C@H](O)[C@H]2O)[C@H](O)[C@H](O)[C@H]1O` (stereo not given in full), the activity change, negative = inhibition is 0% in assay [1]; 2.38% in assay [2]; 4.64% in assay [3]; -12.7% in assay [4]; 8.01% in assay [5].
The matching figures for `COc1ccc(CC2NCCc3c2[nH]c2ccc(C)cc32)cc1OC` (stereo not given): 0.373%, 9.72%, -7.63%, -19.9% and 4.98%.
For `CCc1nc(CC)n2ccn(Cc3ccc(OC)cc3)c(=O)c12`, the activity change, negative = inhibition in assay [1] was -3.34%; in assay [2] it was 2.22%; in assay [3], -1.17%; in assay [4] it was -7.31%; in assay [5], -1.16%.
Regarding `Cc1nc(NC(=O)N2CCCC2C(N)=O)sc1-c1ccnc(C(C)(C)C(F)(F)F)c1` (stereo not given), the activity change, negative = inhibition in assay [1] is -15.9%; in assay [3], -11.5%.
Consider `CC(C)Cc1cc(CC2(NC3CCOCC3)COC2)no1`, for which the activity change, negative = inhibition is -4.46% in assay [1]; -3.58% in assay [2]; -3.02% in assay [3]; -6.63% in assay [4]; -2.44% in assay [5].
The matching figures for `Cc1cc(C)cc(CCC(=O)N2CCN(c3ccc(C#N)cn3)CC2)c1`: -5.54%, -2.53%, -2.62%, -12.3% and -8.51%.
The matching figures for `O=C(NC1CCCC1)c1ccc2c(=O)n(Cc3ccccc3)c3nn(Cc4cccc(F)c4)c(=O)n3c2c1`: 0.498%, -1.9%, 2.87%, -4.39% and -1.93%.
On to `CC(C)CCNC(=O)C1(C)Cn2c(cc3ccccc32)C(=O)N1CCc1ccccc1Cl` (stereo not given), for which the activity change, negative = inhibition in assay [1] was 2.37%; in assay [2] it was 0.687%; in assay [3], -1.6%; in assay [4] it was -5.09%; in assay [5], -3.09%.
